Results as given in a collection of fitness landscapes (doi:10.1016/j.celrep.2020.107928).
The full ranking holds about 81,000 sequences; the median of “one-hybrid fitness for binding parS DNA” is about -0.17, and the highest 2% start at about 0.51. Some of the results follow.

B1: Caulobacter ParB omega fusion; a variant is named by its letters at X, in order, B8GW30 (parent)
chain: MESVVVGEPGMSEGRRGLGRGLSALLGEVDAAPAQAPGEQLGGSREAPIEILQRNPDQPRRTFREEDLEDLSNSIREKGVLQPILVRPSPDTAGEYQIVAGERAWRAAQRAGLKTVPIMVRELDDLAVLEIGIIENVQRADLNVLEEALSYKVLMEKFERTQENIAQTIGKSXSHVANXMRLLXLPDEVQSYLVSGELTAXHARAIAAAADPVALAKQIIEGGLSVRETEALARKAPNLSAGKSKGGRPPRVKDTDTQALESDLSSVLGLDVSIDHRGSTGTLTITYATLEQLDDLCNRLTRGI

Variants of: B1
Test: one-hybrid fitness for binding parS DNA (scaled: cognate 1, non-cognate 0); higher = stronger binding
Details: with parS DNA site
Summary of the method: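 Values were rescaled so that cognate is 1 and non-cognate is 0. Each is a fitness, the log change in a variant's read ratio to wild type from Illumina reads of plasmids before and after selection, with three replicate libraries pooled and variants under 10 reads dropped. Selection of the Caulobacter ParB libraries, four specificity codons randomised, used E. coli USO with a HIS3 reporter, site 19 bp from the promoter, on M9-minus-histidine with 0.1 mM IPTG and 5 mM 3-AT for 48 hours at 37°C.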

| Variant | one-hybrid fitness for binding parS DNA |
| --- | --- |
| SVGT | ≤ 0.2 |
| RFWY | 0.324 |
| MIQR | ≤ 0.2 |
| WYFS | ≤ 0.2 |
| ACGW | 0.256 |
| SLVV | ≤ 0.2 |
| LKMY | ≤ 0.2 |
| QHIL | ≤ 0.2 |
| EPCY | ≤ 0.2 |
| QRMA | ≤ 0.2 |
| CHPT | ≤ 0.2 |
| RLKY | 0.704 |
| RMLP | ≤ 0.2 |
| RPKE | ≤ 0.2 |
| SRPN | ≤ 0.2 |
| WQDI | ≤ 0.2 |
| EVKD | ≤ 0.2 |
| TLTL | ≤ 0.2 |
| TSYV | ≤ 0.2 |
| YNHR | ≤ 0.2 |
| QRPE | ≤ 0.2 |
| CVES | ≤ 0.2 |
| GDTR | ≤ 0.2 |
| KNCV | ≤ 0.2 |

| Variant | one-hybrid fitness for binding parS DNA |
| --- | --- |
| QMGR | ≤ 0.2 |
| EQRR | ≤ 0.2 |
| TPSK | ≤ 0.2 |
| LQPS | ≤ 0.2 |
| MGAS | ≤ 0.2 |
| ETNK | ≤ 0.2 |
| IELT | ≤ 0.2 |
| VKFG | ≤ 0.2 |
| LACV | ≤ 0.2 |
| RWEK | ≤ 0.2 |
| IAVW | ≤ 0.2 |
| EATK | ≤ 0.2 |
| GLLQ | ≤ 0.2 |
| RNER | ≤ 0.2 |
| NTTN | ≤ 0.2 |
| KQRP | ≤ 0.2 |
| CRKR | ≤ 0.2 |
| HANW | ≤ 0.2 |
| TNYT | ≤ 0.2 |
| WCAT | ≤ 0.2 |
| QWHS | ≤ 0.2 |
| PTWL | ≤ 0.2 |
| THLI | ≤ 0.2 |
| TMIE | ≤ 0.2 |

| Variant | one-hybrid fitness for binding parS DNA |
| --- | --- |
| VAGY | ≤ 0.2 |
| RIKP | ≤ 0.2 |
| SLKD | ≤ 0.2 |
| PRAL | ≤ 0.2 |
| LGKI | ≤ 0.2 |
| TNYP | ≤ 0.2 |
| EPFC | ≤ 0.2 |
| YDEP | 0.283 |
| TMFT | ≤ 0.2 |
| RERD | ≤ 0.2 |
| NHYN | ≤ 0.2 |
| TMGC | ≤ 0.2 |
| YFAS | ≤ 0.2 |
| TSGW | ≤ 0.2 |
| PYER | ≤ 0.2 |
| LPSE | ≤ 0.2 |
| DSWA | ≤ 0.2 |
| RLPD | ≤ 0.2 |
| QATW | ≤ 0.2 |
| GTRG | ≤ 0.2 |
| TVIL | ≤ 0.2 |
| LMHT | ≤ 0.2 |
| TCIC | ≤ 0.2 |
| YQRA | ≤ 0.2 |

| Variant | one-hybrid fitness for binding parS DNA |
| --- | --- |
| EGFL | ≤ 0.2 |
| LRAG | ≤ 0.2 |
| VLFS | ≤ 0.2 |
| KTDG | ≤ 0.2 |
| NQQW | ≤ 0.2 |
| TVDR | ≤ 0.2 |
| NYPL | ≤ 0.2 |
| VLYQ | ≤ 0.2 |
| NGGG | ≤ 0.2 |
| INCV | ≤ 0.2 |
| SDAM | ≤ 0.2 |
| QYMR | ≤ 0.2 |
| EGTT | ≤ 0.2 |
| VHME | ≤ 0.2 |
| PIAV | ≤ 0.2 |
| LYWT | ≤ 0.2 |
| VSNG | ≤ 0.2 |
| RCHE | ≤ 0.2 |
| RNLL | ≤ 0.2 |
| HQWA | ≤ 0.2 |
| YEES | ≤ 0.2 |
| RTEQ | ≤ 0.2 |
| YQRL | ≤ 0.2 |
| TPHM | ≤ 0.2 |

| Variant | one-hybrid fitness for binding parS DNA |
| --- | --- |
| AGEC | ≤ 0.2 |
| YHYS | ≤ 0.2 |
| QCER | ≤ 0.2 |
| PIGD | ≤ 0.2 |
| GTRC | ≤ 0.2 |
| VMRC | ≤ 0.2 |
| EPFT | ≤ 0.2 |
| VHQY | ≤ 0.2 |
| SYNY | ≤ 0.2 |
| QVEP | ≤ 0.2 |
| WAIR | ≤ 0.2 |
| CQKV | ≤ 0.2 |
| MVYD | ≤ 0.2 |
| TGAI | ≤ 0.2 |
| YETF | ≤ 0.2 |
| IIIS | ≤ 0.2 |
| QGRC | ≤ 0.2 |
| CLSA | ≤ 0.2 |
| IHMV | ≤ 0.2 |
| QGNT | ≤ 0.2 |
| RRAN | 0.583 |
| VQFE | ≤ 0.2 |
| AANQ | ≤ 0.2 |
| SLAV | ≤ 0.2 |

| Variant | one-hybrid fitness for binding parS DNA |
| --- | --- |
| YNAT | ≤ 0.2 |
| TYCV | ≤ 0.2 |
| PNGP | ≤ 0.2 |
| RLSW | 0.235 |
| GMDL | ≤ 0.2 |
| NFLS | ≤ 0.2 |
| VVVS | ≤ 0.2 |
| YIHS | ≤ 0.2 |
| QMWC | ≤ 0.2 |
| CQHK | ≤ 0.2 |
| RWCG | 0.688 |
| GHTY | ≤ 0.2 |
| ISTA | ≤ 0.2 |
| WASA | ≤ 0.2 |
| SCHT | ≤ 0.2 |
| QPGY | ≤ 0.2 |
| QNKS | ≤ 0.2 |
| APIR | ≤ 0.2 |
| PLIT | ≤ 0.2 |
| KILF | ≤ 0.2 |
| SVRR | ≤ 0.2 |
| WMKG | ≤ 0.2 |
| GPHL | ≤ 0.2 |
| THWT | ≤ 0.2 |

| Variant | one-hybrid fitness for binding parS DNA |
| --- | --- |
| TNGR | ≤ 0.2 |
| MSNR | ≤ 0.2 |
| TAMA | ≤ 0.2 |
| FSQT | ≤ 0.2 |
| QLIQ | ≤ 0.2 |
| WMQR | ≤ 0.2 |
| GAME | ≤ 0.2 |
| RDQS | ≤ 0.2 |
| TRDC | ≤ 0.2 |
| RNAY | 0.359 |
| PALW | ≤ 0.2 |
| RSNK | ≤ 0.2 |
| RGQD | ≤ 0.2 |
| KGRD | ≤ 0.2 |
| NLQS | ≤ 0.2 |
| VCVS | ≤ 0.2 |
| GLSH | ≤ 0.2 |
| APCD | ≤ 0.2 |
| MRKA | ≤ 0.2 |
| GTRY | ≤ 0.2 |
| RLKH | 0.247 |
| CIMR | ≤ 0.2 |
| MSAW | ≤ 0.2 |
| APFA | ≤ 0.2 |

| Variant | one-hybrid fitness for binding parS DNA |
| --- | --- |
| KAMR | ≤ 0.2 |
| ANPC | ≤ 0.2 |
| ISDG | ≤ 0.2 |
| AFTD | ≤ 0.2 |
| AKTM | ≤ 0.2 |
| KPTW | ≤ 0.2 |
| SMQC | ≤ 0.2 |
| CHYC | ≤ 0.2 |
| VRHA | ≤ 0.2 |
| ERLI | ≤ 0.2 |
| NQLY | ≤ 0.2 |
| QYRF | ≤ 0.2 |
| VYKS | ≤ 0.2 |
| MTNR | ≤ 0.2 |
| SYVV | ≤ 0.2 |
| ENQV | ≤ 0.2 |
| HKER | ≤ 0.2 |
| PAAL | ≤ 0.2 |
| YMTN | ≤ 0.2 |
| KPRK | ≤ 0.2 |
| LVFC | ≤ 0.2 |
| IAKR | ≤ 0.2 |
| YTLS | ≤ 0.2 |
| SDDR | ≤ 0.2 |

| Variant | one-hybrid fitness for binding parS DNA |
| --- | --- |
| PSEL | ≤ 0.2 |
| GRST | ≤ 0.2 |
| TTGY | ≤ 0.2 |
| EPSK | ≤ 0.2 |
| HLHT | ≤ 0.2 |
| SIKA | ≤ 0.2 |
| NSAV | ≤ 0.2 |
| PKDT | ≤ 0.2 |
| TSYT | ≤ 0.2 |
| STHG | ≤ 0.2 |
| EETY | ≤ 0.2 |
| LEPG | ≤ 0.2 |
| PSFC | ≤ 0.2 |
| YRMV | ≤ 0.2 |
| HWAF | ≤ 0.2 |
| GCKW | ≤ 0.2 |
| IVSY | ≤ 0.2 |
| LHMD | ≤ 0.2 |
| NNVS | ≤ 0.2 |
| CKLV | ≤ 0.2 |
| GLAF | ≤ 0.2 |
| QLEG | ≤ 0.2 |
| PFNC | ≤ 0.2 |
| RHEK | ≤ 0.2 |

| Variant | one-hybrid fitness for binding parS DNA |
| --- | --- |
| VKWM | ≤ 0.2 |
| LPTG | ≤ 0.2 |
| TSIM | ≤ 0.2 |
| PLEM | ≤ 0.2 |
| YLET | ≤ 0.2 |
| VRDE | ≤ 0.2 |
| RCLN | 0.451 |
| AQCV | ≤ 0.2 |
| LPSV | ≤ 0.2 |
| VIHS | ≤ 0.2 |
| QIWG | ≤ 0.2 |
| YLVD | ≤ 0.2 |
| VKHT | ≤ 0.2 |
| CRMA | ≤ 0.2 |
| SPSP | ≤ 0.2 |
| SATA | ≤ 0.2 |
| KVGY | ≤ 0.2 |
| AHAC | ≤ 0.2 |
| TGSG | ≤ 0.2 |
| AAIK | ≤ 0.2 |
| QRHQ | ≤ 0.2 |
| VAKT | ≤ 0.2 |
| LSMG | ≤ 0.2 |
| IVRG | ≤ 0.2 |

| Variant | one-hybrid fitness for binding parS DNA |
| --- | --- |
| ACAR | ≤ 0.2 |
| NPRV | ≤ 0.2 |
| QQCV | ≤ 0.2 |
| AIST | ≤ 0.2 |
| WSMG | ≤ 0.2 |
| SCTL | ≤ 0.2 |
| SWHQ | ≤ 0.2 |
| VFQS | ≤ 0.2 |
| NTNW | ≤ 0.2 |
| NRMI | ≤ 0.2 |
| ELFV | ≤ 0.2 |
| RAFH | 0.204 |
| CTGP | ≤ 0.2 |
| NWLM | 0.217 |
| MYPG | ≤ 0.2 |
| RIGF | 0.234 |
| MHGR | ≤ 0.2 |
| YFPL | ≤ 0.2 |
| YNPA | ≤ 0.2 |
| RCQN | 0.475 |
| QQFV | ≤ 0.2 |
| RANY | 0.479 |
| GTII | ≤ 0.2 |
| PLDL | ≤ 0.2 |

| Variant | one-hybrid fitness for binding parS DNA |
| --- | --- |
| LHVR | ≤ 0.2 |
| RQMR | ≤ 0.2 |
| PVKY | ≤ 0.2 |
| LTSY | ≤ 0.2 |
| QPTH | ≤ 0.2 |
| VNRE | ≤ 0.2 |
| LPRS | ≤ 0.2 |
| RSKK | ≤ 0.2 |
| FHRW | ≤ 0.2 |
| IPCS | ≤ 0.2 |
| QLYV | ≤ 0.2 |
| STCC | ≤ 0.2 |
| QWPM | ≤ 0.2 |
| QCYD | ≤ 0.2 |
| WERT | ≤ 0.2 |
| TVYL | ≤ 0.2 |
| LMVC | ≤ 0.2 |
| SCYF | ≤ 0.2 |
| QHAE | ≤ 0.2 |
| YPGY | ≤ 0.2 |
| VHTR | ≤ 0.2 |
| KTTN | ≤ 0.2 |
| IPLS | ≤ 0.2 |
| HSCH | ≤ 0.2 |

| Variant | one-hybrid fitness for binding parS DNA |
| --- | --- |
| HEKA | ≤ 0.2 |
| ERSC | ≤ 0.2 |
| DTNH | ≤ 0.2 |
| FCYE | ≤ 0.2 |
| FHIG | ≤ 0.2 |
| KTNF | ≤ 0.2 |
| SQVT | ≤ 0.2 |
| TAKT | ≤ 0.2 |
| FSGT | ≤ 0.2 |
| PMKR | ≤ 0.2 |
| HWER | ≤ 0.2 |
| ISNS | ≤ 0.2 |
| LSYL | ≤ 0.2 |
| YLGL | ≤ 0.2 |
| KSMR | ≤ 0.2 |
| RRIQ | ≤ 0.2 |
| SAYI | ≤ 0.2 |
| RFVL | ≤ 0.2 |
